# According to PubChem BioAssay AID504832 (National Center for Advancing Translational Sciences (NCATS), 2011):
# The campaign covered roughly 310,000 compounds. About 18,000 (5.8%) were called active. The shares of active, inactive and inconclusive entries below differ from those in the screen. Calls come from the whole dose curve; as a rule, active = well fitted inhibition curve with a large enough effect; inconclusive = small, poorly fitted or top-dose-only effect, or another doubt; inactive = no such curve, though single readings can be large or run the other way. Potencies of inconclusive entries are left out as doubtful fits.
# Experiment: Primary qHTS for delayed death inhibitors of the malarial parasite plastid, 48 hour incubation
# Conditions: P. falciparum luciferase growth in erythrocytes; series mostly up to 28.7 µM; activity change, negative = inhibition: at the top concentration
# Summary of the method: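 Firefly luciferase activity from engineered P. falciparum reports growth; inhibitors lower the luminescent signal. Cultures contained 2% hematocrit erythrocytes at 0.1% final parasitemia.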
# % is set by controls: 0 for no effect and ±100 for the full control effect; potency is the fitted concentration of half-maximal effect; tags give direction and shape of the fitted curve.
Structure (SMILES),Potency,"activity change, negative = inhibition"
ClCc1nnc(-c2ccccc2)o1,active: 2.94 µM,–
CCc1nnc(N2C(=N)SCC2=O)s1,"inconclusive [inhibitor, partial curve, poor fit]",–
O=c1c(F)cn(C2CCCO2)c(=O)n1Cc1c(F)cccc1Cl (stereo not drawn),–,inactive: -6.72%
O=C(c1cccc(C(F)(F)F)c1)N1CCC(O)(CS(=O)(=O)Cc2ccc(Cl)cc2)CC1,"inconclusive [inhibitor, partial curve]",–
COc1ccc(C(C(=O)NC2CCCC2)N(C(=O)c2ccoc2C)c2cc(C)cc(C)c2)cc1 (stereo not drawn),–,inactive: -5.22%
O=C(CCl)N=c1sccn1Cc1ccc(Cl)cc1Cl,"inconclusive [inhibitor, partial curve, poor fit]",–
O=C1c2ccccc2NC2(CCCCC2)N1N=C1CCCCC1,–,inactive: 0.619%
COc1ccc(C(=O)N(CC2CCCO2)C(C(=O)NC2CCCC2)c2ccc(Cl)cc2)cc1OC (stereo not drawn),active: 11.7 µM,–
COCCn1nnnc1C(CC(C)C)N1CCN(c2nc3ccccc3s2)CC1 (stereo not drawn),"inconclusive [inhibitor, partial curve]",–
Cc1nn(Cc2c(F)c(F)c(F)c(F)c2F)c(C)c1NC(=O)c1cccc(COc2ccccc2Cl)c1,–,inactive: 137%
O=C(CN1CCC(O)(c2cccc(C(F)(F)F)c2)CC1)NCCc1ccccc1,"inconclusive [inhibitor, single point]",–
Cc1nc(NC(=O)c2cccc(Cl)c2)sc1-c1csc(Nc2cccc(Cl)c2)n1,active: 8.28 µM,–
CCC1=NN2C(=N)/C(=C\c3cccn3-c3ccc(C)c(C)c3)C(=O)N=C2S1,"inconclusive [inhibitor, partial curve, poor fit]",–
Cc1ccc(O)c(C2=Nc3ccccc3N=C(c3ccco3)C2)c1,"inconclusive [inhibitor, partial curve, poor fit]",–
Cc1cc(C)n(-c2nc(SCC(=O)N3CCCC3)c3c4c(sc3n2)CCCC4)n1,"inconclusive [inhibitor, single point]",–
O=C(COc1ccc(Br)cc1)NCCCNC(=O)c1ccncc1,"inconclusive [inhibitor, partial curve]",–
Cc1ccc(OCCCC(=O)Nc2ccc(S(=O)(=O)N3CCOCC3)cc2)cc1,"inconclusive [inhibitor, single point]",–
Cc1noc(NS(=O)(=O)c2ccc(NC(=O)c3ccc(Cl)c(S(=O)(=O)N(C)c4ccccc4)c3)cc2)c1C,"inconclusive [inhibitor, single point]",–
CCn1c(CSc2nnc(-c3ccc4c(c3)OCO4)o2)nc2cc(S(=O)(=O)N(C)C)ccc21,"inconclusive [inhibitor, partial curve]",–
Cc1n[nH]c(C)c1CCC(=O)N/N=C/C=C/c1ccccc1,–,inactive: -10.9%
Cc1ccc(C)c(NS(=O)(=O)c2ccc3c(c2)Cc2cc(S(=O)(=O)Nc4cc(C)ccc4C)ccc2-3)c1,"inconclusive [inhibitor, partial curve]",–
CC1=CC(=C2C(=O)c3ccccc3C2=O)C=C(C)N1Cc1ccco1,–,inactive: 110%
CC(=O)Nc1ccc(S(=O)(=O)N2CCN(c3ccccn3)CC2)cc1,"inconclusive [inhibitor, full curve, poor fit]",–

Structure (SMILES),Potency,"activity change, negative = inhibition"
CC(=O)Oc1ccc(Nc2ccccc2)cc1,–,inactive: -85.3%
C=CCSc1nc2sc(C)c(C)c2c(=O)n1N,–,inactive: 2.97%
Cc1cccc(NC(=O)c2cccc(S(=O)(=O)N3CCCC3)c2)n1,"inconclusive [inhibitor, single point]",–
CS(=O)(=O)c1ccccc1COC(=O)Nc1ccc(Cl)cc1,–,inactive: 35.9%
COc1ccc(C(OCC(O)CN(C)C2CCCCC2)c2ccc(OC)cc2)cc1 (stereo not drawn),"inconclusive [inhibitor, single point]",–
Cc1ccc(C(C)C)c(OCCCN(C)Cc2ccccc2)c1,active: 13.1 µM,–
Cc1nn(Cc2ccccc2)c(Cl)c1C(=O)OCC(=O)NC(=O)NC12CC3CC(CC(C3)C1)C2,"inconclusive [inhibitor, partial curve]",–
CNc1nnc(-c2cccc(N(C)C)c2)s1,–,inactive: 148%
N#CCCn1cc(C(=O)N2CCOCC2)c(-c2ccc3c(c2)OCCO3)n1,–,inactive: 10.6%
CCc1cccc(C)c1NC(=O)COC(=O)c1c2c(nc3ccccc13)/C(=C\c1cccs1)CCC2,active: 13.1 µM,–
COc1ccc(CNC(=O)C(c2ccncc2)N(C(=O)Cc2cccs2)c2ccc(C)cc2)cc1 (stereo not drawn),"inconclusive [inhibitor, single point]",–
COc1ccc(NC(=O)CCOc2ccc(C)cc2)cc1S(=O)(=O)N1CCCCC1,"inconclusive [inhibitor, single point]",–
COCCNc1cc(C)nc2ccccc12,–,inactive: -16.9%
CCN(CC)CCCNC(=O)C1c2ccccc2C(=O)N(C)C1c1ccc(OC)cc1 (stereo not drawn),"inconclusive [inhibitor, partial curve, poor fit]",–
O=C(CSc1nc(=O)n(CCCN2CCOCC2)c2c1CCCC2)Nc1cccc(F)c1,"inconclusive [inhibitor, single point]",–
COc1cccc(CN2CCN(Cc3nc4c(s3)CCCC4)CC2CCO)c1 (stereo not drawn),"inconclusive [inhibitor, single point]",–
COc1ccc(/C(O)=C2\C(=O)C(=O)N(CCN3CCOCC3)C2c2ccccc2OC)cc1 (stereo not drawn),–,inactive: 7.34%
CC(C)CN(C(=O)CN(C)C(=O)c1ccco1)c1c(N)n(CC(C)C)c(=O)[nH]c1=O,"inconclusive [inhibitor, single point]",–
COc1cccc(/C=N/NC(=O)COc2cccc3cccnc23)c1O,"inconclusive [inhibitor, single point]",–
CCCCOP(=O)(OCCCC)C(O)c1ccc(F)cc1 (stereo not drawn),"inconclusive [inhibitor, single point]",–
CCN1C(=O)CC(C(=O)Nc2ccc(F)cc2)SC1=Nc1ccc2c(c1)OCO2 (stereo not drawn),"inconclusive [inhibitor, partial curve]",–
Cc1nnc2sc(-c3cccc(F)c3)nn2c1=O,"inconclusive [inhibitor, partial curve, poor fit]",–
CC(NC(=O)c1cc2c(=O)n3ccccc3nc2n(CC2CCCO2)c1=N)c1ccccc1 (stereo not drawn),active: 13.1 µM,–

Structure (SMILES),Potency,"activity change, negative = inhibition"
Cn1c(Cc2ccccc2)[n+](C)c2ccccc21,"inconclusive [inhibitor, partial curve, poor fit]",–
O=C(CNc1cccc2ccccc12)N/N=C/c1ccc([N+](=O)[O-])o1,active: 3.29 µM,–
Cc1cccc(C)c1-n1c(C)cc(/C=N/NC(=O)c2ccncc2)c1C,"inconclusive [inhibitor, single point]",–
Cc1n[nH]c(C)c1N1C(=O)c2cccc3c(N4CCCCCC4)ccc(c23)C1=O,"inconclusive [inhibitor, partial curve]",–
Cc1cccc(N(Cc2ccccc2)C(=O)c2cccc(S(=O)(=O)N3CC(C)OC(C)C3)c2)c1 (stereo not drawn),active: 13.1 µM,–
Cc1ccc(NC2=CC(=O)C(=O)c3ccccc32)c(C)c1,active: 0.828 µM,–
CCCC[n+]1ccn(-c2nc3c([N+](=O)[O-])cccc3n2C)c1,active: 13.1 µM,–
Cc1cccc(-n2nc([N+](=O)[O-])c(=NCc3cccnc3)n2O)c1,"inconclusive [inhibitor, partial curve, poor fit]",–
Cc1noc(C)c1C(=O)OCC(=O)NC1CCCCC1C (stereo not drawn),"inconclusive [inhibitor, single point]",–
c1ccc(-c2nnc(-c3c[nH]c4ccccc34)nc2-c2ccccc2)cc1,"inconclusive [inhibitor, single point]",–
O=C(CNc1ccccc1N1CCCC1=O)Nc1cc(C(F)(F)F)ccc1-n1cncn1,–,inactive: 31%
Cc1ccc(NNC(=O)c2cc(C(C)(C)C)nn2Cc2ccccc2)cc1,"inconclusive [inhibitor, full curve, poor fit]",–
Cc1ccc2[nH]c(=O)c3cc(C(=O)N(C)C4CCCCC4)sc3c2c1,"inconclusive [inhibitor, single point]",–
Cc1cnc(C)c(N2CCN(Cc3nc(-c4ccc(C)o4)oc3C)CC2)n1,"inconclusive [inhibitor, single point]",–
COc1ccc(Cl)cc1N(CC(=O)Nc1ccccc1C(=O)NCc1ccco1)S(C)(=O)=O,"inconclusive [inhibitor, single point]",–
Cn1c(NCc2ccco2)nc2c1c(=O)n(Cc1ccc(Br)cc1)c(=O)n2C,active: 9.28 µM,–
CCOC(=O)Cc1csc(N/N=C\c2ccc(N(C)C)cc2)n1,active: 7.38 µM,–
COc1cc(NC2c3ncccc3C(=O)N2Cc2ccco2)cc(OC)c1 (stereo not drawn),"inconclusive [inhibitor, partial curve, poor fit]",–
CC(C)(C)OC(=O)NC(CNCc1ccccc1)Cc1ccccc1 (stereo not drawn),"inconclusive [inhibitor, single point]",–
COc1ccccc1/C=C/CN1CCC(Oc2ccc(C(=O)N3CCCC3)cc2)CC1,"inconclusive [inhibitor, single point]",–
Cc1ccc(NC(=O)CSc2ncnc3ccccc23)cc1S(=O)(=O)N1CCCCCC1,"inconclusive [inhibitor, single point]",–
O=C(c1cccc(S(=O)(=O)Nc2ccc(F)cc2)c1)N1CCC1,"inconclusive [inhibitor, single point]",–
